# Assay results as given in the supplement of paper PMC3334620.
# Over roughly 33,000 sequences, “E-score (-0.5 to 0.5)” has its median near -0.053; the highest 2% begin near 0.37. The list shows a part of the results.
# Target: Hap1 (UniProt P0CE41)
# Experiment: PBM E-score (8-mer binding enrichment) (E-score (-0.5 to 0.5)); higher = stronger / more preferred TF binding; most listed sequences are background and not binding sites
# Details: protein concentration: 200 nM; construct: GST-DNA-binding domain
# In short: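 Using PURExpress in vitro transcription/translation, GST-tagged yeast transcription factors were made in full-length or DNA-binding-domain form. These were applied at about 100-200 nM to double-stranded universal all-10-mer Agilent arrays, and bound protein was detected with fluorescent anti-GST. Scans were normalised with masliner before the Universal PBM Analysis Suite assigned E-scores to ungapped eight-base words pooled with their reverse complements.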
# Chain of UniProt P0CE41 (P0CE41 whole entry): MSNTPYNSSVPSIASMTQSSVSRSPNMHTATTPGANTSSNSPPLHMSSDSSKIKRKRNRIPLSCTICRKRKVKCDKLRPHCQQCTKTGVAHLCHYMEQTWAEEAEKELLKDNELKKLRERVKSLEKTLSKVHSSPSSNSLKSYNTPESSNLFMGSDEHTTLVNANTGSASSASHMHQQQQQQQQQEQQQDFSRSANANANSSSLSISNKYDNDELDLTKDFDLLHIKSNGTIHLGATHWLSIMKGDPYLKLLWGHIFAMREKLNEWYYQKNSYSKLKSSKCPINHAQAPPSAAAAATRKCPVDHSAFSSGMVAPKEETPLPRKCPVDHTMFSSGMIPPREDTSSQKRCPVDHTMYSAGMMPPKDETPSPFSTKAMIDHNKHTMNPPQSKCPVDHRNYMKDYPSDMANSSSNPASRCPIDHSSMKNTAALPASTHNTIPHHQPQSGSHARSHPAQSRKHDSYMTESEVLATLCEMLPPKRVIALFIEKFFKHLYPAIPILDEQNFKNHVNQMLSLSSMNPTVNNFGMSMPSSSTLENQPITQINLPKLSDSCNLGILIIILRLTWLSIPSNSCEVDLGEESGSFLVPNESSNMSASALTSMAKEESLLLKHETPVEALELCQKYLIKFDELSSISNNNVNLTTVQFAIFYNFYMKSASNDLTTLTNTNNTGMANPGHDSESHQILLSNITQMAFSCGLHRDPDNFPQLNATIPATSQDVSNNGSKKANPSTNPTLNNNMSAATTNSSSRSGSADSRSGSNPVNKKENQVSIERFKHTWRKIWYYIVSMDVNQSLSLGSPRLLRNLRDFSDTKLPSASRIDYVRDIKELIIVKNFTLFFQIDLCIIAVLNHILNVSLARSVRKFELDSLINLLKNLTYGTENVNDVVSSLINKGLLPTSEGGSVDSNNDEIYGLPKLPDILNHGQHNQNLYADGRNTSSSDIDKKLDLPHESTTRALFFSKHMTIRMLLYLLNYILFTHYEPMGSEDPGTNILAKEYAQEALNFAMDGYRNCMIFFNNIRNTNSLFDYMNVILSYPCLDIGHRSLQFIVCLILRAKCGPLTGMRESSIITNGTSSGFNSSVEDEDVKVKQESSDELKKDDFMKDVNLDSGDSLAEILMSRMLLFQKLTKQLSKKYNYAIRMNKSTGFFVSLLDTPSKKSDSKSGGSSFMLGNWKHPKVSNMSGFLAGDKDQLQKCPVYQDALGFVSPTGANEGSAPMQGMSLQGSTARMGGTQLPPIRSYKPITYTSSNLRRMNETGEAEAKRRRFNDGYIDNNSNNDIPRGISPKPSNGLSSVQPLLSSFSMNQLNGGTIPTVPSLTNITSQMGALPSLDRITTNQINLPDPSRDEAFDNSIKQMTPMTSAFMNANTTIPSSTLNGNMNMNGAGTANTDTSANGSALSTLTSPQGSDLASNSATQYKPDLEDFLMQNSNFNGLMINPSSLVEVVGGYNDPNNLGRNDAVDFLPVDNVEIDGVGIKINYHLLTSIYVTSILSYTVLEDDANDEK
row,Sequence,PBM E-score
1,CCTAGTAA,-0.0872
2,AATGTACA,-0.0116
3,AACTATAG,-0.102
4,CAGAATCA,-0.129
5,GGTGCACC,-0.0141
6,CTCGACCA,-0.187
7,AAACGGAT,0.281
8,GCACTTAA,0.0697
9,GCCGAATA,0.3
10,ACCTGACT,-0.212
11,ATTGCTCG,0.137
12,CCGTCTAC,0.0105
13,CTTTCAAA,0.0259
14,CACGCCTC,-0.277
15,CCGAGGCA,0.289
16,GAACTCGA,-0.192
17,CACCAATG,0.00433
18,AGAAAAGA,-0.13
19,AGAGTCGG,0.1
20,TCTACGCA,-0.158
21,AATAGTGG,-0.0956
22,TCTAAGCA,-0.144
23,AAAAATCT,0.0422
24,GCAACCGA,-0.0187
25,GGATGTGA,0.0954

row,Sequence,PBM E-score
1,AGAGTTAA,-0.105
2,CGGTCGGC,0.325
3,GAACCCGC,0.181
4,AACGAGGA,-0.115
5,GGAATTCC,0.0978
6,CGAAGTTC,0.0889
7,AACCCGTG,-0.101
8,AACTTGCC,-0.0505
9,ATAATCCC,0.326
10,AAGTCACG,0.0659
11,CAAAATCC,0.222
12,ATAACCAA,-0.182
13,AGCCACAA,-0.0589
14,GAAGACAC,0.0373
15,CCGATGGA,0.157
16,CGTTTAAA,0.1
17,CAGTTTAC,-0.209
18,AGTTTAGC,0.0835
19,AATGCACG,0.115
20,GACCTCGC,-0.0792
21,CGTAGTAG,0.0126
22,ATTTCGAG,-0.0565
23,ATACGGAG,0.269
24,AATAGCAA,-0.00784
25,GAATCGCA,0.0586

row,Sequence,PBM E-score
1,CGTAGCGC,0.118
2,GCTTCTTA,0.0677
3,ATGCGTTA,0.0663
4,AAAAGCAA,-0.175
5,ATCCCGAC,0.26
6,ATTGGTAG,-0.0662
7,GCCGTAGA,0.161
8,GGTAAGTA,0.00751
9,ACAAGACA,0.0157
10,ACCGATAC,0.371
11,AGGGGCAG,-0.242
12,GTTTGTCA,-0.172
13,ATGCCTAC,-0.191
14,AGAATTAG,-0.21
15,TGAAGCAA,-0.213
16,CCTGACTA,-0.174
17,ATAATCTC,0.11
18,GGTCTTTA,0.13
19,ATGCGAAC,0.026
20,AATCGAGA,-0.11
21,ATCGTTAG,-0.108
22,AACCTGCT,0.0694
23,CCGCGCTC,0.199
24,CATTTACG,-0.0564
25,CCATCACG,0.0099

row,Sequence,PBM E-score
1,GTAGTGCA,-0.117
2,ACACGACC,-0.0549
3,AGACTTGG,-0.273
4,CTGCTCAC,-0.314
5,GAACTGTA,-0.00641
6,CTGTCAAC,-0.279
7,GGCATCAA,-0.244
8,CAAATAGG,-0.181
9,ACCTGCGA,-0.166
10,GCCGGTAA,0.422
11,CATCTCGA,-0.203
12,CCGGCCTC,0.182
13,AACTAACT,0.0833
14,ATAGTTCC,0.262
15,GCAGAACC,-0.0428
16,CAAATTCG,0.203
17,TCAAAAGA,-0.152
18,AATTCGCG,0.101
19,AGGATAAA,-0.06
20,ACCAACGC,-0.0165
21,AGGAAACA,-0.0825
22,CTGATGGC,-0.0489
23,GTATTCTA,-0.104
24,ATTGTTAG,-0.0403
25,AATTTGTA,0.0347

row,Sequence,PBM E-score
1,TAGCTCGA,-0.073
2,CCTTCTGC,-0.102
3,GACGACCA,-0.0295
4,AATCAGCA,-0.187
5,ACAACATA,-0.0725
6,CTCTAAGA,-0.0595
7,GACTCAAA,-0.155
8,AACGCTCA,-0.116
9,CCACTTAG,-0.282
10,CCTGCCCC,-0.134
11,CTATTATC,0.135
12,CAAACACC,0.14
13,ATTCCGGC,0.37
14,CAATCTGC,-0.0403
15,CAGCGTCC,0.0998
16,GATGAGTA,-0.224
17,CAAAACCA,-0.122
18,ATAAGTGC,-0.0362
19,GAATCTTA,-0.0297
20,GATTCACA,-0.0399
21,AAAACCTG,-0.221
22,GTCTCAAA,-0.231
23,GTGGCTGA,0.0292
24,GTAGGGAA,0.00784
25,GTCTTACA,-0.195

row,Sequence,PBM E-score
1,ACAGCTTC,-0.173
2,CGGGATGA,0.195
3,CAGTTTAG,-0.143
4,CAAACCTC,-0.113
5,CCCTCGTC,-0.094
6,CGTCCTGA,-0.211
7,CTCAAAAC,-0.109
8,ATGGCTAA,-0.052
9,ATAGCTAA,-0.311
10,AAACGCGG,0.21
11,AAGATTCT,-0.258
12,GGATGTAC,0.0389
13,GTTCACGA,-0.0841
14,CTCTACAG,-0.311
15,CAGTTCTA,-0.23
16,AGCGACCA,-0.158
17,CTCTGAAA,-0.0778
18,ATTAAGCC,0.285
19,CGTTAGTC,0.15
20,ATCTCCCG,0.263
21,ACTAGGAA,-0.115
22,CCGCCGAC,0.187
23,GCAAATGC,-0.193
24,ATCGAATC,0.0511
25,CGGACGTA,0.443

row,Sequence,PBM E-score
1,AATTAGGT,-0.0351
2,GCCTCAGC,-0.159
3,AATTATGC,0.0245
4,CATCTATA,-0.00933
5,GAGCAGTA,0.112
6,CCGCCCGG,0.411
7,AATGATCA,-0.179
8,GCATTCGC,-0.0182
9,CTACTTTA,-0.135
10,CTCGTGTC,-0.169
11,AGCCAGCA,-0.268
12,TGAGTCAA,-0.187
13,AACGGTAC,0.143
14,GAATACAA,0.0477
15,AGCGAAAT,0.108
16,GCGAAAGA,-0.0968
17,GACAAAAA,0.0716
18,CGTTGCGC,0.0555
19,ATTGGCTC,-0.126
20,ATCGGGGG,0.349
21,CGAAGGTC,0.0358
22,ACGCCCTC,-0.0435
23,ATACTTGG,-0.0801
24,GGGGAGTA,0.00322
25,AATGGGTG,-0.0614

row,Sequence,PBM E-score
1,ATCTATGG,-0.0553
2,GTGTCAAA,-0.0351
3,AAAGGCCG,0.363
4,ACGAGACA,-0.0645
5,ACTGTTCT,-0.143
6,ATCAGTCG,-0.0278
7,CATTAACC,0.0537
8,CCTACGTC,-0.0359
9,ATGAATTA,-0.159
10,AAAACCAA,-0.0285
11,ATTCACTC,-0.183
12,CATTCCCG,0.265
13,ACATGTCC,0.212
14,AAAAGCTT,0.0731
15,CAGTACAA,-0.0799
16,GTACGGGA,0.0238
17,AATCTCAC,-0.189
18,CCATTGGG,-0.272
19,GGCAGTAC,-0.0918
20,ATTTCAAG,-0.234
21,AAGAGAGA,-0.37
22,GCCGGTAC,0.293
23,GTATACAA,-0.0407
24,GCGCATCC,0.108
25,AATTTAAG,-0.164

row,Sequence,PBM E-score
1,AATTCCAG,0.134
2,CATCCTCA,-0.154
3,CAGTGATA,-0.0411
4,AAATGCCC,-0.12
5,ACCTTCCG,0.203
6,CTATTAGC,0.0383
7,ACGATTTG,-0.182
8,AACTGGGT,-0.0515
9,AATTTTAA,-0.0253
10,GGTTCGCA,-0.0395
11,CTGGCTTA,-0.171
12,CTGTACCC,0.08
13,GGTAAAGA,0.00264
14,AATGAGTA,0.19
15,ATAGCCAA,-0.0355
16,GCGGTGCA,-0.137
17,ATTAAATG,-0.00564
18,CGTCTGAA,-0.284
19,AATGGCCT,0.126
